# PubChem BioAssay AID588795 (National Center for Advancing Translational Sciences (NCATS), 2011)
# About 1,400 (0.36%) of roughly 390,000 compounds were called active. The shares of active, inactive and inconclusive entries below differ from those in the screen. Calls come from the whole dose curve; as a rule, active = well fitted inhibition curve with a large enough effect; inconclusive = small, poorly fitted or top-dose-only effect; inactive = no such curve, though single readings can be large or run the other way. Potencies beside an inconclusive call are fits to weak or partial responses and may not hold up.
# Target: Flap endonuclease 1 (Homo sapiens) (UniProt P39748)
# Assay: qHTS Assay for the Inhibitors of Human Flap endonuclease 1 (FEN1). Note: nearly all actives have a fitted effect of over 65% in size.
# Conditions: Recombinant FEN1 flap cleavage, fluorescence, 15 min; series mostly up to 114 µM
# Summary of the method: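 Compounds are tested as a concentration series against 10 nM FEN1; after a 15 min room-temperature preincubation, 50 nM substrate starts cleavage, with plate reads at 0 and 15 min. Normalized responses are fitted by a Hill equation.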
# Potency is the fitted concentration of half-maximal effect; tags give direction and shape of the fitted curve.
# Sequence of UniProt P39748 (P39748 whole entry, looked up): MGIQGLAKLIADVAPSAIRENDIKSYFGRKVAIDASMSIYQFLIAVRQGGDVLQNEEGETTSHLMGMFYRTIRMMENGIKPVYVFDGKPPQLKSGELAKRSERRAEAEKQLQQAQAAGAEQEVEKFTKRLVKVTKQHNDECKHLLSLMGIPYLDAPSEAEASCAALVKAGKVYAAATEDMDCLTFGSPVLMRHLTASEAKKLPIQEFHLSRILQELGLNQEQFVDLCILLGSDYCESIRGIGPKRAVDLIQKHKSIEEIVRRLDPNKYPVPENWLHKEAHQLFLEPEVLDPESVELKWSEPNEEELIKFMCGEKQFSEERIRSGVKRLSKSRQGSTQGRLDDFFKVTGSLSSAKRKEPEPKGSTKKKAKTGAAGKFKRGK
row,Structure (SMILES),Potency
1,Cc1cccc2c(N=NC(=O)c3ccc(NS(=O)(=O)c4cccs4)cc3)c(O)[nH]c12,"inconclusive: 89.1 µM [inhibitor, single point]"
2,CC(Cl)OC(=O)Nc1cccc2cccnc12 (stereo unspecified),inactive
3,C(#Cc1ccccc1)C[N+]1(CC#Cc2cccc3ccccc23)CCCC1,"inconclusive: 56.2 µM [inhibitor, partial curve, poor fit]"
4,S=c1ncc2[nH]c(=S)[nH]c2[nH]1,inactive
5,Cc1cc(C)c2c(=O)n(CC(=O)Nc3ccc(Cl)cc3)sc2n1,"inconclusive: 89.1 µM [inhibitor, single point]"
6,CC1CC(C)CN(C(=O)c2ccc3c(c2NCCO)C(=O)c2ccccc2C3=O)C1 (stereo unspecified),"inconclusive: 89.1 µM [inhibitor, single point]"
7,COc1ccc(Nc2cc(C(=O)NCCCN(C)Cc3ccccc3)c3ccccc3n2)cc1OC,inactive
8,Cc1cc(-c2nc3ncccc3o2)ccc1NC(=O)c1ccc([N+](=O)[O-])o1,"inconclusive: 89.1 µM [inhibitor, single point]"
9,CC1(C)CC(=O)c2cc(C(=O)Nc3cccc4ccccc34)c(=O)[nH]c2C1,"inconclusive: 79.4 µM [inhibitor, partial curve, poor fit]"
10,C(=NN=C(NN=Cc1cccs1)NN=Cc1cccs1)c1cccs1,"inconclusive: 70.8 µM [inhibitor, partial curve, poor fit]"
11,CCOC(=O)c1[nH]c(C)c(CCC(=O)Nc2cc(Cl)ccc2C)c1C,inactive
12,Fc1ccccc1/C=N/Nc1ncnc2ccccc12,"inconclusive: 89.1 µM [inhibitor, partial curve, poor fit]"
13,CCOc1ccc(-c2nc(Cn3c(=O)cc(-c4ccccc4)c4c(C)nn(C)c43)c(C)o2)cc1OC,inactive
14,Cc1ccc(N2CCN(S(=O)(=O)c3nnc(NC(=O)c4cccc(F)c4)s3)CC2)cc1,inactive
15,CC(=O)OC1CCC2(C)C(COc3ccc4ccc(=O)oc4c3)C(C)(O)CCC2C1(C)C (stereo unspecified),inactive
16,COc1ccc(-c2nc(-c3ccccc3)c(-c3cccs3)[nH]2)cc1OC,"inconclusive: 89.1 µM [inhibitor, partial curve, poor fit]"
17,O=c1c2ccccc2oc2ccc(NCCCn3ccnc3)cc12,"inconclusive: 79.4 µM [inhibitor, partial curve, poor fit]"
18,COc1cc(NC(=O)c2cc(-c3ccccc3Cl)on2)cc(OC)c1OC,"inconclusive: 39.8 µM [inhibitor, partial curve, poor fit]"
19,Cc1cc2nc3c(=O)n(Cc4ccccc4)c(=O)[nH]c3nc2cc1N,"inconclusive: 10 µM [inhibitor, partial curve, poor fit]"
20,CCCC1CC(C)(c2csc(Nc3ccc(OCC)cc3)n2)OC1=O (stereo unspecified),"inconclusive: 20 µM [inhibitor, full curve]"
21,C/C=C1\COC(C(=O)NCCN2CCOCC2)(C(F)(F)F)C=C1C=C(C)C (stereo unspecified),inactive

row,Structure (SMILES),Potency
1,CN1CCN(CCCNC(=O)c2cc3c(-c4ccc(Cl)cc4)nn(C)c3s2)CC1,"inconclusive: 15.8 µM [inhibitor, partial curve, poor fit]"
2,COc1ccccc1N1CCN(/N=C/c2ccc(Cl)c([N+](=O)[O-])c2)CC1,"inconclusive: 3.98 µM [inhibitor, partial curve, poor fit]"
3,Cc1cnn(-c2nc(-c3ccccc3)cc(-c3ccccc3)n2)c1,"inconclusive: 70.8 µM [inhibitor, partial curve, poor fit]"
4,O=c1oc(Cl)c(Cl)c2ccccc12,inactive
5,CCOC(=O)C1=C(O)/C(=C/c2cc(OC)c(O)c(OC)c2)SC1=Nc1ccc(OC)cc1,"inconclusive: 8.91 µM [inhibitor, full curve]"
6,O=[N+]([O-])c1cccc2ccc(/C=C/c3ccc(C(F)(F)F)cc3)nc12,"inconclusive: 56.2 µM [inhibitor, partial curve, poor fit]"
7,CC1CC(C)CN(C(=O)C(C)N2CCN(S(=O)(=O)c3cccs3)CC2)C1 (stereo unspecified),inactive
8,COc1cc2cc3c(N)c(C(=O)NCc4ccco4)sc3nc2cc1OC,"inconclusive: 35.5 µM [inhibitor, full curve]"
9,COc1cccc(/C=N/Nc2cc(N3CCOCC3)ncn2)c1O,inactive
10,CC(C)c1ccc(CC(C)C2C3=C(CCCC3=O)OC3=C2C(=O)CCC3)cc1 (stereo unspecified),"inconclusive: 70.8 µM [inhibitor, partial curve, poor fit]"
11,COCc1cc(=O)[nH]c(Nc2nc3ccccc3o2)n1,inactive
12,CCc1ccc(NC(=O)Nc2ccsc2C(=O)OC)cc1,"inconclusive: 89.1 µM [inhibitor, partial curve, poor fit]"
13,Cc1ccc(-c2csc3ncn(CC#N)c(=O)c23)cc1C,"inconclusive: 56.2 µM [inhibitor, partial curve, poor fit]"
14,COc1cc(/C=C2\SC(=Nc3ccccc3OC)NC2=O)ccc1O,"inconclusive: 89.1 µM [inhibitor, partial curve, poor fit]"
15,COc1ccc(C(NC(C)=O)c2cc(Cl)c3cccnc3c2O)cc1 (stereo unspecified),"inconclusive: 50.1 µM [inhibitor, partial curve, poor fit]"
16,COc1cc2c(cc1OC)C(c1ccc(-c3ccc(Cl)c(Cl)c3)o1)=NCC2,"inconclusive: 89.1 µM [inhibitor, partial curve, poor fit]"
17,CCN1C(=O)/C(=C/c2ccc(N3CCCC3)cc2)NC1=S,"inconclusive: 89.1 µM [inhibitor, partial curve, poor fit]"
18,Cc1[nH]n(-c2ccccc2)c(=O)c1N=Nc1ccc(Cl)cc1,"inconclusive: 89.1 µM [inhibitor, single point]"
19,Cc1[nH]c2ccccc2c1C1(O)C(=O)N(Cc2ccccc2)c2ccc(Br)cc21 (stereo unspecified),"inconclusive: 35.5 µM [inhibitor, partial curve, poor fit]"
20,O=C(O)CN1C(=O)/C(=C\c2cc(Br)ccc2OCc2ccc(Cl)cc2)SC1=S,"inconclusive: 25.1 µM [inhibitor, full curve, poor fit]"
